# Test results: PMC8024306
# These are yes or no findings as the source states them, for the method shown. In cells and extracts the contact can be indirect. Some entries that bind do so weakly or less than the wild type. Sequences can lack the tags named with a protein.
# T1: GST-HMRΔ115 (Arabidopsis thaliana) (UniProt F4IHY7)
# T1 sequence: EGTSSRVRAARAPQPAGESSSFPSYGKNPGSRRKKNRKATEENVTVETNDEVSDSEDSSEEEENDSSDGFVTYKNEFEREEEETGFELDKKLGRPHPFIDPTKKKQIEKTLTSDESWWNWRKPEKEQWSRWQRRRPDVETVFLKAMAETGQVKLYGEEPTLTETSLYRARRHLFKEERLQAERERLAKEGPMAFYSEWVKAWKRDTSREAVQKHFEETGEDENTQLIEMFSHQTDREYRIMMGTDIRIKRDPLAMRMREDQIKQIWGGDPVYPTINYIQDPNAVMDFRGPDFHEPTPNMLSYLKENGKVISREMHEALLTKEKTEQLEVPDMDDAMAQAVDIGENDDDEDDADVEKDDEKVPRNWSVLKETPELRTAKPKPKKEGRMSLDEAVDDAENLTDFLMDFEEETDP
# T2: GST-HMRΔ251 (Arabidopsis thaliana) (UniProt F4IHY7)
# T2 sequence: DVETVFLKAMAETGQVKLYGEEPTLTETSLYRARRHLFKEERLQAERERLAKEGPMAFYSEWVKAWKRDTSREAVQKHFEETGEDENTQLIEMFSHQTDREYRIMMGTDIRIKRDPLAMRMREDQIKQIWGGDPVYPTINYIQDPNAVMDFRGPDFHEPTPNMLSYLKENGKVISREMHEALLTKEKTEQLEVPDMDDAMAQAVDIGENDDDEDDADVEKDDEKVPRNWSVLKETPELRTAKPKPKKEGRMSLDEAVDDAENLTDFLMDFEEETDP
# T3: HMR^D516N (HMR22) (Arabidopsis thaliana) (UniProt F4IHY7)
# T3 sequence: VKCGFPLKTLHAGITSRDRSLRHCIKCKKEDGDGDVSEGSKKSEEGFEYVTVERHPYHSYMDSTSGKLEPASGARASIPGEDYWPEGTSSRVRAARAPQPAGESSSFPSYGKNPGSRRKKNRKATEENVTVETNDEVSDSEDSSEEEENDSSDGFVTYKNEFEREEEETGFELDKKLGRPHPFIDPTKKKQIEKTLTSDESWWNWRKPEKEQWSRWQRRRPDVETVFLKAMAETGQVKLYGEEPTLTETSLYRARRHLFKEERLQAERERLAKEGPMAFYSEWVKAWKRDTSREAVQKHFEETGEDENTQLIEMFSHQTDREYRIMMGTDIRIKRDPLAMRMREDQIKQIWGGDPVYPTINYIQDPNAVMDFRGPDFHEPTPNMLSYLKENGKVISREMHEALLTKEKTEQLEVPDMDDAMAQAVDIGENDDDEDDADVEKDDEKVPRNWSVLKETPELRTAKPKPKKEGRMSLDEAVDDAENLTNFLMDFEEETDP
# T4: RCB-HA-His (REGULATOR OF CHLOROPLAST BIOGENESIS, HA- and His-tagged, in the transgenic line RCB-HA-His/rcb-10) (Arabidopsis thaliana) (UniProt F4JLC1)
# T4 sequence: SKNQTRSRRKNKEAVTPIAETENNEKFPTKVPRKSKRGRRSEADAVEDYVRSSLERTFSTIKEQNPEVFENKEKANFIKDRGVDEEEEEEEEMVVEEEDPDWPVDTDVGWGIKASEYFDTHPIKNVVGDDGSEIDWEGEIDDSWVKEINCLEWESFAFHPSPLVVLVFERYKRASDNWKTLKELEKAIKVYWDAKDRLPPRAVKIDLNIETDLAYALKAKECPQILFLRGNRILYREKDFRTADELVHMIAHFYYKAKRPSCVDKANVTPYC
# T5: HMR-HA (HEMERA, HA-tagged, in the transgenic line HMR-HA/hmr-5) (Arabidopsis thaliana) (UniProt F4IHY7)
# T5 sequence: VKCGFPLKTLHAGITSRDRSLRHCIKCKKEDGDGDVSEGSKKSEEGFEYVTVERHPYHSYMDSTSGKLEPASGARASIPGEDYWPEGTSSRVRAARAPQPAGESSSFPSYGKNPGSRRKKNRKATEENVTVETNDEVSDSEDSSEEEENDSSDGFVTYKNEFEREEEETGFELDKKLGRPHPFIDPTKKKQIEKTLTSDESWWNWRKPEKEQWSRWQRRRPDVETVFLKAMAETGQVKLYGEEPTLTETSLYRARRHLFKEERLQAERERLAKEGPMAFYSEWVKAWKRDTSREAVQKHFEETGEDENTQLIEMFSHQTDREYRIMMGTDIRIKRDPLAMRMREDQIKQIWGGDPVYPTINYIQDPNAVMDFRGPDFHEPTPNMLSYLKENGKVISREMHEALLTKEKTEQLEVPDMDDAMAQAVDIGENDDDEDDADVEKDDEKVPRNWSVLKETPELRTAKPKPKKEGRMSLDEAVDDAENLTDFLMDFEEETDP
# Assays:
# [1] = target: T1, GST-HMRΔ115 (Arabidopsis thaliana); test: pull-down; GST or GST-HMR baits immobilized on glutathione Sepharose beads; in vitro translated HA-RCB preys, 4 °C for 2 h; washed with E buffer (50 mM Tris-HCl pH 7.5, 100 mM NaCl, 0.1% Nonidet P-40); anti-HA immunoblot; only the target purified
# [2] = target: T2, GST-HMRΔ251 (Arabidopsis thaliana); test: as above
# [3] = target: T3, HMR^D516N (HMR22) (Arabidopsis thaliana); test: pull-down; pulldown of HMR22 (D516N) against wild-type HMR with RCB; details only in Supplementary Fig. 2
# [4] = target: T4, RCB-HA-His (REGULATOR OF CHLOROPLAST BIOGENESIS, HA- and His-tagged, in the transgenic line RCB-HA-His/rcb-10) (Arabidopsis thaliana); test: co-IP; lysate of 4-d-old transgenic seedlings (RCB-HA-His/rcb-10 or HMR-HA/hmr-5) grown in 10 μmol m^-2 s^-1 R light at 21 °C; HA-tagged protein precipitated on anti-HA matrix, 4 h at 4 °C, Co-IP buffer 50 mM Tris-Cl pH 7.5, 100 mM NaCl, 0.1% NP-40; partner detected by immunoblot; Col-0 as negative …
# [5] = target: T5, HMR-HA (HEMERA, HA-tagged, in the transgenic line HMR-HA/hmr-5) (Arabidopsis thaliana); test: as above
binding [2],Binder,also measured
binds,"HA-tagged full-length RCB (HA-RCB) (protein, UniProt F4JLC1 1-331) MSFFAVACSAPRSSMLLTGLNSSFSDMHRSPLFVFPVTISSRSVKRFAAVSSDSVLDPESKNQTRSRRKNKEAVTPIAETENNEKFPTKVPRKSKRGRRSEADAVEDYVRSSLERTFSTIKEQNPEVFENKEKANFIKDRGVDEEEEEEEEMVVEEEDPDWPVDTDVGWGIKASEYFDTHPIKNVVGDDGSEIDWEGEIDDSWVKEINCLEWESFAFHPSPLVVLVFERYKRASDNWKTLKELEKAIKVYWDAKDRLPPRAVKIDLNIETDLAYALKAKECPQILFLRGNRILYREKDFRTADELVHMIAHFYYKAKRPSCVDKANVTPYC",binding [1]: no binding; binding [3]: binds
–,"HEMERA (HMR), endogenous in RCB-HA-His/rcb-10 seedlings (protein, UniProt F4IHY7 31-527) VKCGFPLKTLHAGITSRDRSLRHCIKCKKEDGDGDVSEGSKKSEEGFEYVTVERHPYHSYMDSTSGKLEPASGARASIPGEDYWPEGTSSRVRAARAPQPAGESSSFPSYGKNPGSRRKKNRKATEENVTVETNDEVSDSEDSSEEEENDSSDGFVTYKNEFEREEEETGFELDKKLGRPHPFIDPTKKKQIEKTLTSDESWWNWRKPEKEQWSRWQRRRPDVETVFLKAMAETGQVKLYGEEPTLTETSLYRARRHLFKEERLQAERERLAKEGPMAFYSEWVKAWKRDTSREAVQKHFEETGEDENTQLIEMFSHQTDREYRIMMGTDIRIKRDPLAMRMREDQIKQIWGGDPVYPTINYIQDPNAVMDFRGPDFHEPTPNMLSYLKENGKVISREMHEALLTKEKTEQLEVPDMDDAMAQAVDIGENDDDEDDADVEKDDEKVPRNWSVLKETPELRTAKPKPKKEGRMSLDEAVDDAENLTDFLMDFEEETDP",binding [4]: binds
binds,"HA-RCBΔ89 (domain or fragment, UniProt F4JLC1 90-331) VPRKSKRGRRSEADAVEDYVRSSLERTFSTIKEQNPEVFENKEKANFIKDRGVDEEEEEEEEMVVEEEDPDWPVDTDVGWGIKASEYFDTHPIKNVVGDDGSEIDWEGEIDDSWVKEINCLEWESFAFHPSPLVVLVFERYKRASDNWKTLKELEKAIKVYWDAKDRLPPRAVKIDLNIETDLAYALKAKECPQILFLRGNRILYREKDFRTADELVHMIAHFYYKAKRPSCVDKANVTPYC",–
binds,"HA-RCBΔ51 (domain or fragment, UniProt F4JLC1 52-331) SDSVLDPESKNQTRSRRKNKEAVTPIAETENNEKFPTKVPRKSKRGRRSEADAVEDYVRSSLERTFSTIKEQNPEVFENKEKANFIKDRGVDEEEEEEEEMVVEEEDPDWPVDTDVGWGIKASEYFDTHPIKNVVGDDGSEIDWEGEIDDSWVKEINCLEWESFAFHPSPLVVLVFERYKRASDNWKTLKELEKAIKVYWDAKDRLPPRAVKIDLNIETDLAYALKAKECPQILFLRGNRILYREKDFRTADELVHMIAHFYYKAKRPSCVDKANVTPYC",–
–,"REGULATOR OF CHLOROPLAST BIOGENESIS (RCB), endogenous in HMR-HA/hmr-5 seedlings (protein, UniProt F4JLC1 60-331) SKNQTRSRRKNKEAVTPIAETENNEKFPTKVPRKSKRGRRSEADAVEDYVRSSLERTFSTIKEQNPEVFENKEKANFIKDRGVDEEEEEEEEMVVEEEDPDWPVDTDVGWGIKASEYFDTHPIKNVVGDDGSEIDWEGEIDDSWVKEINCLEWESFAFHPSPLVVLVFERYKRASDNWKTLKELEKAIKVYWDAKDRLPPRAVKIDLNIETDLAYALKAKECPQILFLRGNRILYREKDFRTADELVHMIAHFYYKAKRPSCVDKANVTPYC",binding [5]: binds
binds,"HA-RCBΔ159 (domain or fragment, UniProt F4JLC1 160-331) DWPVDTDVGWGIKASEYFDTHPIKNVVGDDGSEIDWEGEIDDSWVKEINCLEWESFAFHPSPLVVLVFERYKRASDNWKTLKELEKAIKVYWDAKDRLPPRAVKIDLNIETDLAYALKAKECPQILFLRGNRILYREKDFRTADELVHMIAHFYYKAKRPSCVDKANVTPYC",–
